Source: the supplement of paper PMC8728848
Some of the results follow.

How the values were obtained:
Assay in all cases: glycan array binding signal (z-score within array); higher = stronger binding
Settings in all cases: glycan notation: IUPAC condensed, linker removed
[1] = molecular target: Fuc(a1-3)GlcNAc
Method in brief: (§1)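 The binding signal is a Z-score computed within each array. Data were drawn from 3228 arrays in the Consortium for Functional Glycomics database, restricted to those with a known protein sequence. Scores were averaged over arrays of the same protein sequence at different concentrations or buffers, and over linkers, and negative values can be taken as non-binding.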

[2] = molecular target: Fuc(a1-3)[Gal(b1-4)]Glc6S
Method in brief: as §1

[3] = molecular target: Fuc(a1-3)[Gal(b1-4)]GlcNAc
Method in brief: as §1

[4] = molecular target: Fuc(a1-3)[Gal(b1-4)]GlcNAc(b1-2)Man
Method in brief: as §1

[5] = molecular target: Fuc(a1-3)[Gal(b1-4)]GlcNAc(b1-2)Man(a1-3)[Fuc(a1-3)[Gal(b1-4)]GlcNAc(b1-2)Man(a1-6)]Man(b1-4)GlcNAc(b1-4)GlcNAc
Method in brief: as §1

[6] = molecular target: Fuc(a1-3)[Gal(b1-4)]GlcNAc(b1-2)Man(a1-3)[Fuc(a1-3)[Gal(b1-4)]GlcNAc(b1-2)Man(a1-6)]Man(b1-4)GlcNAc(b1-4)[Fuc(a1-6)]GlcNAc
Method in brief: as §1

[7] = molecular target: Fuc(a1-3)[Gal(b1-4)]GlcNAc(b1-3)Gal(b1-3)[Fuc(a1-4)]GlcNAc
Method in brief: as §1

[8] = molecular target: Fuc(a1-3)[Gal(b1-4)]GlcNAc(b1-3)Gal(b1-4)[Fuc(a1-3)]GlcNAc
Method in brief: as §1

[9] = molecular target: Fuc(a1-3)[Gal(b1-4)]GlcNAc(b1-3)Gal(b1-4)[Fuc(a1-3)]GlcNAc(b1-3)Gal(b1-4)[Fuc(a1-3)]GlcNAc
Method in brief: as §1

[10] = molecular target: Fuc(a1-3)[Gal(b1-4)]GlcNAc(b1-3)GalNAc
Method in brief: as §1

[11] = molecular target: Fuc(a1-3)[Gal(b1-4)]GlcNAc(b1-6)GalNAc
Method in brief: as §1

[12] = molecular target: Fuc(a1-3)[Gal(b1-4)]GlcNAc(b1-6)[Gal(b1-3)GlcNAc(b1-3)]Gal(b1-4)Glc
Method in brief: as §1

[13] = molecular target: Fuc(a1-3)[Gal(b1-4)]GlcNAc6S
Method in brief: as §1

[14] = molecular target: Fuc(a1-3)[Gal3S(b1-4)]Glc
Method in brief: as §1

[15] = molecular target: Fuc(a1-3)[Gal3S(b1-4)]GlcNAc
Method in brief: as §1

[16] = molecular target: Fuc(a1-3)[Gal3S(b1-4)]GlcNAc6S
Method in brief: as §1

[17] = molecular target: Fuc(a1-3)[GalNAc(b1-4)]GlcNAc
Method in brief: as §1

[18] = molecular target: Fuc(a1-3)[GalNAc(b1-4)]GlcNAc6S
Method in brief: as §1

[19] = molecular target: Fuc(a1-4)GlcNAc
Method in brief: as §1

[20] = molecular target: Fuc(b1-3)GlcNAc
Method in brief: as §1

[21] = molecular target: Gal(a1-2)Gal
Method in brief: as §1

[22] = molecular target: Gal(a1-3)Gal
Method in brief: as §1

[23] = molecular target: Gal(a1-3)Gal(b1-3)GlcNAc
Method in brief: as §1

[24] = molecular target: Gal(a1-3)Gal(b1-3)GlcNAc(b1-2)Man
Method in brief: as §1

[25] = molecular target: Gal(a1-3)Gal(b1-3)GlcNAc(b1-2)Man(a1-3)[Gal(a1-3)Gal(b1-3)GlcNAc(b1-2)Man(a1-6)]Man(b1-4)GlcNAc(b1-4)GlcNAc
Method in brief: as §1

[26] = molecular target: Gal(a1-3)Gal(b1-3)GlcNAc(b1-3)GalNAc
Method in brief: as §1

[27] = molecular target: Gal(a1-3)Gal(b1-3)GlcNAc(b1-6)GalNAc
Method in brief: as §1

[28] = molecular target: Gal(a1-3)Gal(b1-3)[Fuc(a1-4)]GlcNAc(b1-2)Man(a1-3)[Gal(a1-3)Gal(b1-3)[Fuc(a1-4)]GlcNAc(b1-2)Man(a1-6)]Man(b1-4)GlcNAc(b1-4)GlcNAc
Method in brief: as §1

[29] = molecular target: Gal(a1-3)Gal(b1-4)Glc
Method in brief: as §1

[30] = molecular target: Gal(a1-3)Gal(b1-4)GlcNAc
Method in brief: as §1

[31] = molecular target: Gal(a1-3)Gal(b1-4)GlcNAc(b1-2)Man
Method in brief: as §1

[32] = molecular target: Gal(a1-3)Gal(b1-4)GlcNAc(b1-2)Man(a1-3)[Gal(a1-3)Gal(b1-4)GlcNAc(b1-2)Man(a1-6)]Man(b1-4)GlcNAc(b1-4)GlcNAc
Method in brief: as §1

[33] = molecular target: Gal(a1-3)Gal(b1-4)GlcNAc(b1-3)GalNAc
Method in brief: as §1

[34] = molecular target: Gal(a1-3)Gal(b1-4)GlcNAc(b1-6)GalNAc
Method in brief: as §1

[35] = molecular target: Gal(a1-3)Gal(b1-4)[Fuc(a1-3)]GlcNAc
Method in brief: as §1

[36] = molecular target: Gal(a1-3)Gal(b1-4)[Fuc(a1-3)]GlcNAc(b1-2)Man(a1-3)[Gal(a1-3)Gal(b1-4)[Fuc(a1-3)]GlcNAc(b1-2)Man(a1-6)]Man(b1-4)GlcNAc(b1-4)GlcNAc
Method in brief: as §1

[37] = molecular target: Gal(a1-3)GalNAc
Method in brief: as §1

B1: ClecSol-Fc (Cryptosporidium parvum) (protein)
chain: CPEGWISNGEKTRCFKLVTFDRPRTFSHGFKACNDLGGTEVETRRRNGSKETNEYPVTLASVYKLSDEEAIRRTLVEQGDIHKTANGCFVGLRKYAFFRYPPGWYWIDSGSPVSVRDSEINWTSSYNASWLLRFKFPFEKCGFFDIGGLGRRPCWLIDSELSCAVCGTVAYDSGGLNPNKYSELIKQTDEIISKEPKLDLPGYNNLNCTDAWENNLSVGLCQNVSNILDSAWSSYQSSLNFPSINFNWKEDSTNEGGDQVYHNSYLDLPRYKQKKTFYWDQDPGTIPALSDEMKLIGLSAQPTYHPLDRSSSGSFESDSTESGRANEERNDTLEEMIYKQSSDSIEDILVPVTKPIFSDYSSIGRNSGVEEVYSSNVSTISSKGVVFPNTTTSSDNDFTKNNPANSSKHTSTSTTTNTTTTTTRTTTTTTTTTTTTTTTTTTTTETTTTKKSTTATKNTTTT
[1]
  glycan array binding signal (z-score): -0.265
[2]
  glycan array binding signal (z-score): 0.276
[3]
  glycan array binding signal (z-score): -0.035
[4]
  glycan array binding signal (z-score): -0.22
[5]
  glycan array binding signal (z-score): -0.255
[6]
  glycan array binding signal (z-score): 0.593
[7]
  glycan array binding signal (z-score): -0.002
[8]
  glycan array binding signal (z-score): -0.185
[9]
  glycan array binding signal (z-score): -0.153
[10]
  glycan array binding signal (z-score): 0.034
[11]
  glycan array binding signal (z-score): 0.222
[12]
  glycan array binding signal (z-score): 0.068
[13]
  glycan array binding signal (z-score): 0.07
[14]
  glycan array binding signal (z-score): -0.003
[15]
  glycan array binding signal (z-score): -0.127
[16]
  glycan array binding signal (z-score): 0.082
[17]
  glycan array binding signal (z-score): 0.055
[18]
  glycan array binding signal (z-score): -0.242
[19]
  glycan array binding signal (z-score): -0.052
[20]
  glycan array binding signal (z-score): -0.044
[21]
  glycan array binding signal (z-score): 0.039
[22]
  glycan array binding signal (z-score): -0.307
[23]
  glycan array binding signal (z-score): 0.156
[24]
  glycan array binding signal (z-score): -0.009
[25]
  glycan array binding signal (z-score): -0.058
[26]
  glycan array binding signal (z-score): 0.185
[27]
  glycan array binding signal (z-score): -0.177
[28]
  glycan array binding signal (z-score): 0.183
[29]
  glycan array binding signal (z-score): -0.003
[30]
  glycan array binding signal (z-score): -0.137
[31]
  glycan array binding signal (z-score): -0.243
[32]
  glycan array binding signal (z-score): -0.124
[33]
  glycan array binding signal (z-score): -0.245
[34]
  glycan array binding signal (z-score): 0.163
[35]
  glycan array binding signal (z-score): -0.198
[36]
  glycan array binding signal (z-score): 0.063
[37]
  glycan array binding signal (z-score): -0.136
